PubChem BioAssay AID894 (National Center for Advancing Translational Sciences (NCATS), 2007)
Hit rate of the full screen: of about 150,000 compounds, about 6,500 (4.3%) were called active. The inconclusive results got no clear call from the source; some entries with a clear call stand among them for comparison. Calls come from the whole dose curve; as a rule, active = well fitted inhibition curve with a large enough effect (not every such curve was filed as active); inconclusive = small, poorly fitted or top-dose-only effect, or another doubt; inactive = no such curve, though single readings can be large or run the other way. Potencies of inconclusive entries are left out as doubtful fits.

Target: 15-hydroxyprostaglandin dehydrogenase [NAD(+)] (Homo sapiens) (UniProt P15428)
Assay: qHTS Assay for Inhibitors of HPGD (15-Hydroxyprostaglandin Dehydrogenase)
Conditions: purified HPGD, NADH fluorescence kinetic, PGE2 substrate; activity change, negative = inhibition: active compounds read low
Summary of the method: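 NADH formation kinetics: reaction with 30 uM PGE2 and 1 mM NAD+ (final), 20 nM enzyme, Tris-HCl pH 8 with Tween 20, after 15 min compound preincubation at room temperature. Fluorescence change, last versus first of five reads.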
% is set by controls: 0 for no effect and ±100 for the full control effect; potency is the fitted concentration of half-maximal effect; tags give direction and shape of the fitted curve.

Chain of UniProt P15428 (P15428 whole entry, looked up): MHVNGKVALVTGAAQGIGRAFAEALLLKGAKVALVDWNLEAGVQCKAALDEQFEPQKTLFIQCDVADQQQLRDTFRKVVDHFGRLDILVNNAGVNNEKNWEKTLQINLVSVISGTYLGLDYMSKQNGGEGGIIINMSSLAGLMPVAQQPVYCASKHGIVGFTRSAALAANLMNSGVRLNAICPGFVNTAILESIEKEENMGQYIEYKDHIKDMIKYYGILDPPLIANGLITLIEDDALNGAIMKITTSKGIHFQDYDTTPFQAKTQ

| Compound | activity change, negative = inhibition | Potency |
| --- | --- | --- |
| CCn1c(SCC(=O)N/N=C/C(C)=C\c2ccco2)nnc1-c1ccccc1 | inactive: -16.3% |  |
| COC(=O)C1=C(C(C)=O)C(c2ccc(C(=O)OC)cc2)n2nnnc2N1 (centres undefined) | inactive: -10.9% |  |
| Cc1cc(NS(=O)(=O)c2ccc(NC(=O)CCCOc3ccc(Cl)cc3)cc2)no1 |  | inconclusive [inhibitor, partial curve] |
| CC(/C=N/n1c(COc2ccccc2)n[nH]c1=S)=C\c1ccccc1 |  | active: 5.62 µM |
| CCCCNC(=O)c1c[nH]c2ccc(S(=O)(=O)Nc3ccc(OCC)cc3)cc2c1=O |  | inconclusive [inhibitor, single point] |
| CN1CCC(Nc2ncc3ncnc(Nc4ccc(F)c(Cl)c4)c3n2)CC1 |  | inconclusive [inhibitor, single point] |
| CCSc1nnc(NC(=O)C(CC)(C(F)(F)F)C(F)(F)F)s1 | inactive: -13.8% |  |
| CN(Cc1ccco1)c1ncnc2ccc(-c3ccc4c(c3)OCO4)cc12 |  | inconclusive [inhibitor, partial curve] |
| Oc1ccc(Br)cc1-c1cc(-c2ccccc2F)[nH]n1 |  | active: 4.47 µM |
| O=C1NNC(=O)C2C3C=CC(C4CC34)C12 (centres undefined) | inactive: -4.33% |  |
| Cc1ccc(Nc2nnc(SC/C(O)=C(\C#N)c3nc4ccccc4[nH]3)s2)c(C)c1 |  | inconclusive [inhibitor, partial curve, poor fit] |
| Cc1ccccc1Nc1nc(-c2sc(NC(=O)c3ccco3)nc2C)cs1 |  | inconclusive [inhibitor, partial curve] |
| C=CCNC(=O)CNS(=O)(=O)c1ccc(F)cc1 |  | active: 31.6 µM |
| Fc1ccccc1-n1[nH]nnc1=S |  | active: 25.1 µM |
| O=C(Nc1ccon1)c1csc2ccccc12 |  | active: 25.1 µM |
| CC(C)c1ccc(/C=N/Nc2ccc(C(=O)O)cc2)cc1 |  | active: 14.1 µM |
| CCN(CC)S(=O)(=O)c1ccc(NS(=O)(=O)c2ccc(O)c([N+](=O)[O-])c2)cc1 |  | active: 35.5 µM |
| O=c1c2cc(-c3ccccc3)sc2ncn1/N=C/c1ccco1 |  | inconclusive [inhibitor, single point] |
| COc1ccc(-c2nc(CSCC(=O)N3CCC(C(N)=O)CC3)c(C)o2)cc1OC |  | inconclusive [inhibitor, single point] |
| COc1ccc(OCCOCCOc2ccc(C)cc2[N+](=O)[O-])cc1 |  | inconclusive [inhibitor, partial curve] |
| O=C1C(=Cc2ccc(Br)o2)C(=O)c2ccccc21 |  | active: 31.6 µM |
| CCc1ccccc1NC(=O)COc1cccc2ccc(C)nc12 | inactive: -21.1% |  |
| C/C(=N\OCC(=O)Nc1ccc(OC(F)(F)F)cc1)c1ccc2c(c1)OCCO2 |  | inconclusive [inhibitor, partial curve, poor fit] |
| CCCCn1c(/C=C/c2ccco2)nc2ccccc21 |  | inconclusive [inhibitor, partial curve] |
| COc1cc(OC)c(-c2c3cc(O)c(=O)cc-3oc3cc(O)c(O)cc23)cc1OC |  | active: 15.8 µM |

| Compound | activity change, negative = inhibition | Potency |
| --- | --- | --- |
| COc1ccc(O)c(-c2cc(-c3cccc(Br)c3)n[nH]2)c1 |  | inconclusive [inhibitor, partial curve] |
| CSCCC(NC(=O)c1ccccc1Br)C(=O)Nc1ccc(C)cc1 (centres undefined) | inactive: -7.29% |  |
| COc1cc(NC(=O)c2ccc3c(c2)OCO3)c2ncccc2c1 |  | inconclusive [inhibitor, partial curve] |
| Cc1ccc(-c2c(C#N)c(N)n(-c3ccccc3)c(=O)c2C#N)cc1 |  | inconclusive [inhibitor, partial curve] |
| O=C(c1cc2cc(Br)cc(Br)c2oc1=O)N1CCCC1 |  | active: 28.2 µM |
| O=C(c1cccc(F)c1)N1CCC2(CC1)CN(c1cccc(-c3ccccc3)c1)C2 |  | inconclusive [inhibitor, single point] |
| CC(C)(C)c1nnc(NC(=O)c2cc(-c3ccccc3)nc3ccccc23)s1 |  | inconclusive [inhibitor, partial curve] |
| O=C(CSc1nnc(C2CCCCC2)n1Cc1ccccc1)NCc1ccco1 | inactive: -11.5% |  |
| CCCOC(=O)c1ccc(NC(=O)C2CCCO2)cc1 (centres undefined) |  | inconclusive [inhibitor, partial curve] |
| O=C(Nc1ccccc1)c1ccsc1 |  | inconclusive [inhibitor, partial curve, poor fit] |
| Oc1ccc(/C=N/Nc2nccnc2Cl)c(O)c1 |  | active: 28.2 µM |
| CC(NC(=O)c1ccco1)C(=O)OCc1cccc(Cl)c1 (centres undefined) |  | inconclusive [inhibitor, partial curve] |
| CCC#CCOCC(=S)Nc1ccccc1 | inactive: -14.6% |  |
| CC(=O)C1=C(O)C(=O)N(c2ccc(S(N)(=O)=O)cc2)C1c1ccccc1F (centres undefined) |  | inconclusive [inhibitor, partial curve] |
| Cc1ccc2nc(-c3cccnc3)oc2c1 |  | inconclusive [inhibitor, partial curve] |
| COC(=O)c1ccccc1NC1CC(=O)N(c2c(C)cccc2C)C1=O (centres undefined) |  | inconclusive [inhibitor, partial curve] |
| Cc1ccc2c(CSc3nncs3)cc(=O)oc2c1 | inactive: -18.3% |  |
| Cc1nc(N2CCOCC2)c(C#N)c2c1COC(C)(C)C2 |  | inconclusive [inhibitor, partial curve] |
| CC(C)Cc1nc(N2CCN(C(=O)c3ccccc3)CC2)c(C#N)c2c1CCC2 |  | inconclusive [inhibitor, single point] |
| CC(C)Cc1cc(C(=O)Nc2cc(Br)ccc2O)no1 |  | active: 25.1 µM |
| CCCCC1(C)OC(=O)C(=Cc2ccc(N(CC)CC)cc2)C(=O)O1 (centres undefined) |  | active: 20 µM |
| CN(C)C(=O)c1ccc(NC(=O)c2cccnc2)cc1 |  | active: 31.6 µM |
| COc1ccc(/C=C/C(=O)OCc2csc(-c3ccccc3)n2)cc1OC |  | inconclusive [inhibitor, single point] |
| Cc1cc(C(=O)NNC(=S)NC(=O)/C=C/c2ccccc2Cl)n[nH]1 |  | inconclusive [inhibitor, partial curve] |
| O=C(Nc1cccc(N=Cc2cc(Br)cc(Br)c2O)c1)c1ccco1 | inactive: -12.5% |  |

| Compound | activity change, negative = inhibition | Potency |
| --- | --- | --- |
| COCc1nnc(NS(=O)(=O)c2ccc([N+](=O)[O-])cc2)s1 |  | inconclusive [inhibitor, single point] |
| CS(=O)(=O)c1nc(-c2cccs2)cc(C(F)(F)F)n1 |  | inconclusive [inhibitor, partial curve] |
| O=C(c1ccc2ncsc2c1)N1CCN(c2ccc(O)cc2)CC1 | inactive: -1.09% |  |
| Cc1ccc(C)c(-c2nc3cc(N)ccc3o2)c1 |  | inconclusive [inhibitor, partial curve] |
| CCn1c(=O)c(-c2ccccc2)c(O)c2ccccc21 | inactive: -5.56% |  |
| N=c1c2c(-c3ccccc3)c(-c3ccccc3)n(Cc3ccco3)c2ncn1Cc1ccco1 | inactive: -2.36% |  |
| c1ccc(OCc2nnc3sc(C4COc5ccccc5O4)nn23)cc1 (centres undefined) |  | active: 7.08 µM |
| O=c1c(O)c(-c2ccccc2)oc2cccc(O)c12 |  | inconclusive [inhibitor, partial curve] |
| Fc1ccc([C@H]2CCNC[C@H]2COc2ccc3c(c2)OCO3)cc1 | inactive: -4.14% |  |
| COc1ccc2oc(-c3ccccc3)c(C(N)=O)c2c1 |  | inconclusive [inhibitor, partial curve] |
| COc1ccccc1OCC(O)Cn1nc(C)cc1C (centres undefined) |  | inconclusive [inhibitor, partial curve] |
| O=C(COC(=O)c1ccccn1)Nc1ncc(C(F)(F)F)cc1Cl | inactive: -15.5% |  |
| O=C(Nc1cccs1)Nc1ccccc1Cl |  | inconclusive [inhibitor, partial curve] |
| Cc1nn(-c2ccccc2)c(N2CCCC2)c1/C=N/NC(=S)Nc1ccccc1F |  | inconclusive [inhibitor, partial curve] |
| OCc1ccccc1N=c1ssnc1Cl |  | active: 6.31 µM |
| COc1cccc2sc(Nc3nnc(-c4cccs4)o3)nc12 |  | inconclusive [inhibitor, partial curve] |
| CCc1nc2ccccc2n1Cc1cc(=O)n2cc(C)ccc2n1 |  | inconclusive [inhibitor, partial curve] |
| CC(=O)c1cc2c(cc1NC(=O)c1cc(C)nn1-c1ccccc1)OCO2 |  | inconclusive [inhibitor, partial curve] |
| Cc1cc(/C=N/n2cnnc2)c(C)n1-c1ccc(OCc2ccc(Cl)cc2Cl)cc1 |  | inconclusive [inhibitor, partial curve] |
| CC1CCCC(NC(=O)COC(=O)/C=C/c2ccc3c(c2)OCO3)C1C (centres undefined) |  | inconclusive [inhibitor, partial curve] |
| CCC1c2ccc(C)n2CCN1C(=O)Nc1cc(Cl)ccc1OC (centres undefined) | inactive: -13.5% |  |
| O=C(O)C1CC(=O)N(c2ccc(OCc3ccc(Cl)cc3Cl)cc2)C1 (centres undefined) |  | active: 14.1 µM |
| CC1C=CCC2C(=O)N(c3cccc(C(=O)N4CCN(c5ccc(F)cc5)CC4)c3)C(=O)C12 (centres undefined) |  | inconclusive [inhibitor, partial curve] |
| Cn1c(N/N=C/c2c[nH]c3ccccc23)nc2ccccc21 |  | inconclusive [inhibitor, single point] |
